# Test results as given in the supplement of paper PMC6135742.
# “And” between values parts separate entries of the source, which are not always exact repeats. Identical values can stand only once. Counter-ions that a name gives are not always drawn. ± gives the standard deviation of the averaged measurements. Over roughly 2,600 compounds, “MBP+ mature oligodendrocyte number relative to DMSO vehicle control” has its median near -0.34; the highest 2% begin near 13. The list shows a part of the results.
# Tested on: jimpy (Plp1 jimpy) mouse iPSC-derived oligodendrocyte progenitor cells
# Test: MBP+ mature oligodendrocyte number relative to DMSO vehicle control (SDs above negative control mean); higher = more surviving jimpy oligodendrocytes (rescue)
# Details: 10 µM; 3 days
# 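Also: 10 µM single dose with 3-day oligodendrocyte differentiation.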
row,Compound,MBP+ mature oligodendrocyte number
1,"COC1=C(OC)C(=O)c2ccccc2C1=O [2,3-Dimethoxy-1,4-naphthoquinone]",-4.41
2,CCCNS(=O)(=O)Nc1ncnc(OCCOc2ncc(Br)cn2)c1-c1ccc(Br)cc1 [Macitentan],2.07
3,CC(CCc1ccc(O)cc1)NCCc1ccc(O)c(O)c1 (configuration not stated) [Dobutamine hydrochloride],-1.33
4,N[C@@H](CCC(=O)N[C@@H](CSN=O)C(=O)NCC(=O)O)C(=O)O [S-Nitrosoglutathione],-0.951
5,CCCCNc1ncc(-c2ccc(CN3CCOCC3)cn2)c(NC2CCC(O)CC2)n1 (configuration not stated),-4.15
6,CCOc1nc2cccc(C(=O)OC(C)OC(=O)OC3CCCCC3)c2n1Cc1ccc(-c2ccccc2-c2nn[nH]n2)cc1 (configuration not stated) [Candesartan Cilexetil],1.51
7,CCOc1nc2cccc(C(=O)OC(C)OC(=O)OC3CCCCC3)c2n1Cc1ccc(-c2ccccc2-c2nn[nH]n2)cc1 (configuration not stated) [Candesartan cilexetil],-1.35
8,COc1ccc(-c2oc3c(CC=C(C)C)c(O)cc(O)c3c(=O)c2O)cc1 [Icaritin],-3.18
9,O=c1cc(O)cc(/C=C/c2ccc(O)c(O)c2)o1 [Hispidin],-0.178
10,CCN1CCC[C@H]1CNC(=O)c1cc(S(N)(=O)=O)ccc1OC [Levosulpiride],6.1
11,Nc1ccc(S(N)(=O)=O)cc1 [Sulfanilamide],1.24
12,Cn1c(=O)c(F)c(Nc2ccc(I)cc2F)c2c(=O)n(C[C@@H](O)CO)cnc21,-5.69
13,COc1ccc(-c2cc3c(C)nc(N)nc3n([C@H]3CC[C@H](OCCO)CC3)c2=O)cn1,< -6.01
14,CC(C)N(CCC(=O)c1ccc2ccccc2c1)Cc1ccccc1,-1.5 and -1.1
15,"CC(C)(C)C#Cc1cc(N(C(=O)[C@H]2CC[C@H](C)CC2)[C@H]2CC[C@H](O)CC2)c(C(=O)O)s1 [VX-222 (VCH-222, Lomibuvir)]",1.16
16,CCOC(=O)c1ccc(C#Cc2ccc3c(c2)C(C)(C)CCS3)nc1 [Tazarotene],-0.345 ± 0.97
17,CCC(C)(C)c1ccc(CC(C)CN2C[C@@H](C)O[C@@H](C)C2)cc1 (some centres not stated) [Amorolfine HCl],28.8
18,COc1ccc(CCN(C)CCCC(C#N)(c2ccc(OC)c(OC)c2)C(C)C)cc1OC (racemic) [Verapamil HCl],-2.38
19,COc1ccc(CCN(C)CCCC(C#N)(c2ccc(OC)c(OC)c2)C(C)C)cc1OC (racemic) [(±)-Verapamil hydrochloride],-2.6
20,CNC1(C)C2CCC(C2)C1(C)C (configuration not stated) [Mecamylamine hydrochloride],-0.872
21,O=C(NCc1ccc(Oc2ccccc2)cc1)c1nc(-c2cc(Br)c(O)c(Br)c2)no1,0.829
22,CCCCCCCCCCCCCCCC[N+](C)(C)C [Cetrimonium Bromide (CTAB)],< -6.35
23,Cc1c(Cn2c(C)nc3c(C(=O)O)cc(N4CCOCC4)cc32)cccc1C(F)(F)F,2.25
24,COc1cccc(OC)c1-c1cc(C(=O)NC2(C(=O)O)C3CC4CC(C3)CC2C4)nn1-c1ccc(C(=O)N(C)CCCN(C)C)cc1C(C)C (configuration not stated),1.39
25,Cn1c(=O)c2c(ncn2CC(O)CO)n(C)c1=O (configuration not stated) [Dyphylline],0.0731
26,CCCc1nc(C(C)(C)O)c(C(=O)OCc2oc(=O)oc2C)n1Cc1ccc(-c2ccccc2-c2nnn[nH]2)cc1 [Olmesartan Medoxomil],-1.1

row,Compound,MBP+ mature oligodendrocyte number
1,NC(=O)c1cccnc1 [Nicotinamide (Vitamin B3)],0.253
2,Nc1nccs1 [Aminothiazole],3.03
3,CC(C)[C@H](NC(=O)c1ccc2ccccc2n1)C(=O)N[C@@H](CC(=O)O)C(=O)COc1c(F)cccc1F,24.8
4,CC(C)(Oc1ccc(C2CC2(Cl)Cl)cc1)C(=O)O (configuration not stated) [Ciprofibrate],1.18 ± 0.72
5,Cc1[nH]c(/C=C2\C(=O)Nc3ccc(S(=O)(=O)Cc4c(Cl)cccc4Cl)cc32)c(C)c1C(=O)N1CCC[C@@H]1CN1CCCC1,< -6.7
6,COc1ccc(CNCc2cccc3ccccc23)cc1,-1.56
7,NC(=O)[C@@H](CCC(F)(F)F)N(Cc1ccc(-c2ncon2)cc1F)S(=O)(=O)c1ccc(Cl)cc1,4.21
8,N#CC(=C(/N)Sc1ccccc1N)/C(C#N)=C(\N)Sc1ccccc1N,-2.51
9,N#CC(=C(/N)Sc1ccccc1N)/C(C#N)=C(\N)Sc1ccccc1N [U0126 monoethanolate],0.273
10,CC(C)c1onc(-c2c(Cl)cccc2Cl)c1COc1ccc(/C=C/c2cccc(C(=O)O)c2)c(Cl)c1,4.15
11,Nc1nc(Nc2ccc(S(N)(=O)=O)cc2)nn1C(=O)c1c(F)cccc1F,< -6.7
12,C=CCN1CCCC1CNC(=O)c1cc2nn[nH]c2cc1OC (configuration not stated) [Alizapride HCl],7.67
13,Cc1nc2c(OCc3ccccc3)cccn2c1CC#N,-0.962
14,CCOC(=O)C1=C(C)NC(C)=C(C(=O)OC)C1c1cccc([N+](=O)[O-])c1 (configuration not stated) [Nitrendipine],4.55 ± 2.1
15,N[C@H](C(=O)O)[C@H](Cc1ccccc1)C(=O)O [L-Beta-threo-benzyl-aspartate],1.25
16,"CN(C)c1nc(N)c(C(=O)NC(=N)N)nc1Cl [5-(N,N-Dimethyl)amiloride hydrochloride]",-0.747
17,O=C(c1ccc(OCCN2CCCCC2)cc1)c1c(-c2ccc(O)cc2)sc2cc(O)ccc12 [Raloxifene hydrochloride],5.72
18,O=C(c1ccc(OCCN2CCCCC2)cc1)c1c(-c2ccc(O)cc2)sc2cc(O)ccc12 [Raloxifene HCl],10.3
19,CNC(=O)c1ccc(N2C(=S)N(c3cnc(C#N)c(C(F)(F)F)c3)C(=O)C23CCC3)cc1F,5.74
20,CNC(=O)c1ccccc1Sc1ccc2c(/C=C/c3ccccn3)n[nH]c2c1 [Axitinib],-5.04
21,CC(C)(NS(=O)(=O)c1ccc(Oc2ccc(F)cc2)cc1)C(=O)NO,-0.0098
22,CC(CN1c2ccccc2Sc2ccccc21)N(C)C (configuration not stated) [Promethazine hydrochloride],-3.93
23,CNC(=O)CN1CCC(Oc2cc3c(Nc4cccc(Cl)c4F)ncnc3cc2OC)CC1 [AZD8931 (Sapitinib)],-4.14
24,CCN1CCCC1CNC(=O)c1cc(S(=O)(=O)CC)c(N)cc1OC (configuration not stated) [Amisulpride],0.0203 ± 0.13
25,Nc1nc(N)nc(-c2cc(Cl)ccc2Cl)n1 [Irsogladine],-1.46
26,CCCS(=O)(=O)Nc1ccc(F)c(C(=O)c2c[nH]c3ncc(Cl)cc23)c1F,0.545

row,Compound,MBP+ mature oligodendrocyte number
1,O=C(Nc1cccc(Cl)c1)Nc1ncc(CCNc2ncnc3ccsc23)s1 [SNS-314 Mesylate],3.08
2,Nc1ncnc2c1c(-c1cccc(OCc3ccccc3)c1)cn2C1CC(CN2CCCC2)C1 (configuration not stated),< -6.7
3,CCc1c(C(=O)NCCc2ccc(N3CCCCC3)cc2)[nH]c2ccc(Cl)cc12,8.45
4,Nc1cccc(-c2cc3c(Oc4cccc(O)c4)ncnc3[nH]2)c1,-3.71
5,CC(C)[C@H]1CC[C@H](C(=O)N[C@H](Cc2ccccc2)C(=O)O)CC1 [Nateglinide],-0.78
6,COc1c(O)cc2c(c1O)[C@@H]1O[C@H](CO)[C@@H](O)[C@H](O)[C@H]1OC2=O [Bergenin],-0.444
7,COc1ccc(-n2nc(C(N)=O)c3c2C(=O)N(c2ccc(N4CCCCC4=O)cc2)CC3)cc1 [Apixaban],-0.467
8,COc1ccc(C(C)=O)c(O)c1 [Paeonol],-1.62
9,CC(C)c1nc(CN(C)C(=O)N[C@H](C(=O)N[C@@H](Cc2ccccc2)C[C@H](O)[C@H](Cc2ccccc2)NC(=O)OCc2cncs2)C(C)C)cs1 [Ritonavir],-3.99
10,CCCOC(=O)c1c(-c2ccccc2)nc(CC)c(C(=O)SCC)c1CCC,-1.93
11,COc1ccccc1OCCNCC(O)COc1cccc2[nH]c3ccccc3c12 (configuration not stated) [Carvedilol],-4.38 ± 0.7
12,CC1CCc2cc(F)cc3c(=O)c(C(=O)O)cn1c23 (configuration not stated) [Flumequine],1.53
13,COc1cc(N2CCC(N3CCN(C)CC3)CC2)ccc1Nc1ncc(Cl)c(Nc2ccccc2S(=O)(=O)C(C)C)n1,< -6.7
14,C[C@@H](O)[C@H]1C(=O)N2C(C(=O)OCOC(=O)C(C)(C)C)=C(SC3CN(C4=NCCS4)C3)[C@H](C)[C@H]12 [Tebipenem Pivoxil],-4.36
15,CCCCOc1ccc(OCCCN2CCOCC2)cc1 [Pramoxine HCl],14.3
16,COC(=O)Nc1nc2cc(C(=O)c3ccc(F)cc3)ccc2[nH]1 [Flubendazole],-4.88
17,CC(=O)O[C@H]1Cc2ccccc2N(C(N)=O)c2ccccc21,-0.711
18,O=C(O[C@@H]1C[C@@H]2C[C@H]3C[C@H](C1)N2CC3=O)c1c[nH]c2ccccc12 [Dolasetron mesylate hydrate],-0.0327
19,CC(C)(C)NC(=O)[C@@H]1CN(Cc2cccnc2)CCN1C[C@@H](O)C[C@@H](Cc1ccccc1)C(=O)N[C@H]1c2ccccc2C[C@H]1O [Indinavir sulfate salt hydrate],-1.26
20,COc1ccc2cc1Oc1ccc(cc1)C[C@H]1c3c(cc4c(c3Oc3cc5c(cc3OC)CCN(C)[C@@H]5C2)OCO4)CCN1C [Cepharanthine],< -6.35
21,NC1=N[C@@]2(c3cc(NC(=O)c4ccc(F)cn4)ccc3F)COC[C@H]2CS1,0.563
22,COc1ccc(COc2cc3oc(=O)c4cc(C(C)O)ccc4c3cc2OC)cc1 (configuration not stated) [Palomid 529 (P529)],0.843
23,CCCCCCCC/C=C\CCCCCCCC(=O)O [Oleic Acid],-0.559
24,CC(C)(C)NCC(O)c1ccc(O)c(CO)c1 (configuration not stated) [Albuterol hemisulfate],-0.426
25,"CO[C@H]1C[C@@H]2CC[C@@H](C)[C@@](O)(O2)C(=O)C(=O)N2CCCC[C@H]2C(=O)O[C@H]([C@H](C)C[C@@H]2CC[C@@H](OP(C)(C)=O)[C@H](OC)C2)CC(=O)[C@H](C)/C=C(\C)[C@@H](O)[C@@H](OC)C(=O)[C@H](C)C[C@H](C)/C=C/C=C/C=C/1C [Ridaforolimus (Deforolimus, MK-8669)]",-3.82
